Measured values from the supplement of paper PMC4604168 (melanoma cell lines).
The other results are listed elsewhere or left out. Repeats are few or missing, and single values can be far off.

What was measured:
Assay in all cases: cell count relative to DMSO control; melanoma cells; higher = more viable cells
Conditions in all cases: library dose: low library concentration; 72 h
WM115 = system: WM115
WM1716 = system: WM1716
WM1745 = system: WM1745
WM3526 = system: WM3526
WM3619 = system: WM3619
WM451Lu = system: WM451Lu
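Further: cell number obtained by counting DAPI-stained nuclei in high-throughput microscope images with image analysis software, screen run in 1,536-well plates.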

For `Cc1cc(N2CCOCC2)cc2[nH]c(-c3c(NC[C@@H](O)c4cccc(Cl)c4)cc[nH]c3=O)nc12` + NCC(=O)Nc1ccc(-n2nc(C(F)(F)F)cc2-c2ccc3c(ccc4ccccc43)c2)cc1 [OSU03012] (first compound 0.2 µM, partner dose 1 µM), the cell count (WM115) was 80.9%, the cell count (WM1716) was 105% and the cell count (WM1745) was 80.1%. The cell count (WM3526) was 54%, the cell count (WM3619) was 101% and the cell count (WM451Lu) was 62.3%.
In the case of `O=C(Nc1cc(C(F)(F)F)cc(C(F)(F)F)c1)c1cc(Cl)ccc1O` + NC(=O)Nc1cc(-c2cccc(F)c2)sc1C(=O)N[C@H]1CCCNC1 [AZD7762] (first compound 0.016 µM, partner dose 0.02 µM), the cell count (WM115) is reported as 94.6%, the cell count (WM1716) is reported as 99.3% and the cell count (WM1745) is reported as 93.5%. It also gave a cell count (WM3526) of 110%, a cell count (WM3619) of 77.6% and a cell count (WM451Lu) of 87.4%.
For `O=C(Nc1ccccc1)c1cc([N+](=O)[O-])ccc1Cl` + COc1cc(N2CCC(N3CCN(C)CC3)CC2)ccc1Nc1ncc(Cl)c(Nc2ccccc2S(=O)(=O)C(C)C)n1 [NVP-TAE684] (first compound 2 µM, partner dose 0.08 µM), the cell count (WM115) was 98.4%, the cell count (WM1716) was 97.9% and the cell count (WM1745) was 81.7%. The cell count (WM3526) was 93.7%, the cell count (WM3619) was 101% and the cell count (WM451Lu) was 99.2%.
For `O=C(Nc1cc(C(F)(F)F)cc(C(F)(F)F)c1)c1cc(Cl)ccc1O` + COc1ccc(-c2ccc3c(N4CCOCC4)nc(N4C[C@@H](C)O[C@@H](C)C4)nc3n2)cc1CO [KU0063794] (first compound 0.016 µM, partner dose 0.02 µM), the cell count (WM115) was 101%, the cell count (WM1716) was 119% and the cell count (WM1745) was 99.1%. The cell count (WM3526) was 89.1%, the cell count (WM3619) was 98.1% and the cell count (WM451Lu) was 105%.
`O=C(Nc1cc(C(F)(F)F)cc(C(F)(F)F)c1)c1cc(Cl)ccc1O` + O=C(O)c1ccc2c(c1)nc(Nc1cccc(Cl)c1)c1ccncc12 [CX4945] (first compound 0.016 µM, partner dose 0.4 µM) showed a cell count (WM115) of 115%, a cell count (WM1716) of 109% and a cell count (WM1745) of 113%. For the same molecule, the cell count (WM3526) was 103%, the cell count (WM3619) was 96.5% and the cell count (WM451Lu) was 113%.
Work on `O=C(Nc1cc(C(F)(F)F)cc(C(F)(F)F)c1)c1cc(Cl)ccc1O` + Clc1ccc(Nc2nnc(Cc3ccncc3)c3ccccc23)cc1 [vatalanib] (first compound 0.016 µM, partner dose 2 µM) yielded a cell count (WM115) of 88.5%, a cell count (WM1716) of 100% and a cell count (WM1745) of 92.5%. For the same molecule, the cell count (WM3526) was 110%, the cell count (WM3619) was 123% and the cell count (WM451Lu) was 90.5%.
`O=C(Nc1cc(C(F)(F)F)cc(C(F)(F)F)c1)c1cc(Cl)ccc1O` + C=CCn1c(=O)c2cnc(Nc3ccc(N4CCN(C)CC4)cc3)nc2n1-c1cccc(C(C)(C)O)n1 [MK1775] (first compound 0.016 µM, partner dose 0.02 µM) was tested, and the cell count (WM115) was 85.7%, the cell count (WM1716) was 98.4% and the cell count (WM1745) was 91.3%. It also gave a cell count (WM3526) of 113%, a cell count (WM3619) of 96.8% and a cell count (WM451Lu) of 85%.
`O=C(O)c1ccc2c(c1)nc(Nc1cccc(Cl)c1)c1ccncc12` + COc1ccc(COc2ccc(Cc3cnc(N)nc3N)cc2OC)cc1 [GW2580] (first compound 0.4 µM, partner dose 1 µM) gave a cell count (WM115) of 92.2%, a cell count (WM1716) of 84.4% and a cell count (WM1745) of 92.7%. It also gave a cell count (WM3526) of 73.9%, a cell count (WM3619) of 122% and a cell count (WM451Lu) of 90%.
`O=C(Nc1cc(C(F)(F)F)cc(C(F)(F)F)c1)c1cc(Cl)ccc1O` + O=C(CCCCCCC(=O)Nc1ccccc1)NO [vorinostat] (first compound 0.016 µM, partner dose 0.08 µM) gave a cell count (WM115) of 81.7%, a cell count (WM1716) of 75.9% and a cell count (WM1745) of 106%. The cell count (WM3526) was 81.7%, the cell count (WM3619) was 98.4% and the cell count (WM451Lu) was 94.1%.
Molecule `O=C(O)[C@@H]1[O][Sb](=[O])([O][Sb]2(=[O])[O][C@H]([C@H](O)CO)[C@H](O)[C@H](C(=O)O)[O]2)[O][C@H]([C@H](O)CO)[C@@H]1O` (stereo not given in full) [stibogluconate] + COc1cc2ncnc(Nc3ccc(Oc4ccccc4)cc3)c2cc1OC [SrcI1] (first compound 2 µM, partner dose 2 µM) has a cell count (WM115) of 110%, a cell count (WM1716) of 122% and a cell count (WM1745) of 86%. For the same molecule, the cell count (WM3526) was 95.2%, the cell count (WM3619) was 117% and the cell count (WM451Lu) was 110%.
In the case of `O=C(Nc1cc(C(F)(F)F)cc(C(F)(F)F)c1)c1cc(Cl)ccc1O` + CCCCCCCCCCCC1=C(O)C(=O)C=C(O)C1=O [Embelin] (first compound 0.016 µM, partner dose 1.2 µM), the cell count (WM115) is reported as 102%, the cell count (WM1716) is reported as 118% and the cell count (WM1745) is reported as 96.6%. The cell count (WM3526) was 98%, the cell count (WM3619) was 102% and the cell count (WM451Lu) was 99.3%.
With `Cn1nnc2c(C(N)=O)ncn2c1=O` [temozolomide] + COc1cc(Nc2ncc(F)c(Nc3ccc4c(n3)NC(=O)C(C)(C)O4)n2)cc(OC)c1OC [Tamatinib] (first compound 2 µM, partner dose 0.4 µM) the cell count (WM115) was 93.7%, the cell count (WM1716) was 84.8% and the cell count (WM1745) was 72.9%. For the same molecule, the cell count (WM3526) was 96.5%, the cell count (WM3619) was 83.3% and the cell count (WM451Lu) was 107%.
Molecule `Cc1cc(N2CCOCC2)cc2[nH]c(-c3c(NC[C@@H](O)c4cccc(Cl)c4)cc[nH]c3=O)nc12` + COc1cc2c(Oc3ccc4[nH]c(C)cc4c3F)ncnc2cc1OCCCN1CCCC1 [cediranib] (first compound 0.2 µM, partner dose 0.4 µM) has a cell count (WM115) of 108%, a cell count (WM1716) of 112% and a cell count (WM1745) of 72.1%. For the same molecule, the cell count (WM3526) was 82.9%, the cell count (WM3619) was 139% and the cell count (WM451Lu) was 82.3%.
In the case of `Cn1nnc2c(C(N)=O)ncn2c1=O` [temozolomide] + CC(C)(C)c1cnc(CSc2cnc(NC(=O)C3CCNCC3)s2)o1 [SNS-032] (first compound 2 µM, partner dose 0.01 µM), the cell count (WM115) is reported as 102%, the cell count (WM1716) is reported as 74.4% and the cell count (WM1745) is reported as 101%. It also gave a cell count (WM3526) of 86%, a cell count (WM3619) of 84.3% and a cell count (WM451Lu) of 88.7%.
For `O=C(O)[C@@H]1[O][Sb](=[O])([O][Sb]2(=[O])[O][C@H]([C@H](O)CO)[C@H](O)[C@H](C(=O)O)[O]2)[O][C@H]([C@H](O)CO)[C@@H]1O` (stereo not given in full) [stibogluconate] + Nc1nc(F)nc2c1ncn2[C@@H]1O[C@H](CO)[C@@H](O)[C@@H]1O [fludarabine] (first compound 2 µM, partner dose 0.2 µM), the cell count (WM115) was 83.3%, the cell count (WM1716) was 90% and the cell count (WM1745) was 111%. It also gave a cell count (WM3526) of 31.8%, a cell count (WM3619) of 92.6% and a cell count (WM451Lu) of 42.6%.
`Cc1cc(N2CCOCC2)cc2[nH]c(-c3c(NC[C@@H](O)c4cccc(Cl)c4)cc[nH]c3=O)nc12` + CCN(CC)CCCCNc1ncc2cc(-c3cc(OC)cc(OC)c3)c(NC(=O)NC(C)(C)C)nc2n1 [PD173074] (first compound 0.2 µM, partner dose 0.1 µM) showed a cell count (WM115) of 101%, a cell count (WM1716) of 99.3% and a cell count (WM1745) of 78.6%. The cell count (WM3526) was 93%, the cell count (WM3619) was 88.3% and the cell count (WM451Lu) was 94.1%.
For `O=C(O)[C@@H]1[O][Sb](=[O])([O][Sb]2(=[O])[O][C@H]([C@H](O)CO)[C@H](O)[C@H](C(=O)O)[O]2)[O][C@H]([C@H](O)CO)[C@@H]1O` (stereo not given in full) [stibogluconate] + Cc1cc([N+](=O)[O-])ccc1NS(=O)(=O)c1cc(Cl)ccc1Cl [FH535] (first compound 2 µM, partner dose 1 µM), the cell count (WM115) was 87.3%, the cell count (WM1716) was 94.6% and the cell count (WM1745) was 85.1%. For the same molecule, the cell count (WM3526) was 114%, the cell count (WM3619) was 108% and the cell count (WM451Lu) was 102%.
Molecule `Cn1nnc2c(C(N)=O)ncn2c1=O` [temozolomide] + CCN(CC)CCCCNc1ncc2cc(-c3cc(OC)cc(OC)c3)c(NC(=O)NC(C)(C)C)nc2n1 [PD173074] (first compound 2 µM, partner dose 0.1 µM) has a cell count (WM115) of 98.3%, a cell count (WM1716) of 75.7% and a cell count (WM1745) of 96.3%. It also gave a cell count (WM3526) of 105%, a cell count (WM3619) of 107% and a cell count (WM451Lu) of 97.2%.
For `O=C(O)[C@@H]1[O][Sb](=[O])([O][Sb]2(=[O])[O][C@H]([C@H](O)CO)[C@H](O)[C@H](C(=O)O)[O]2)[O][C@H]([C@H](O)CO)[C@@H]1O` (stereo not given in full) [stibogluconate] + O=S(=O)(c1ccccc1)N(CC(F)(F)F)c1ccc(C(O)(C(F)(F)F)C(F)(F)F)cc1 [T0901317] (first compound 2 µM, partner dose 1.4 µM), the cell count (WM115) was 103%, the cell count (WM1716) was 104% and the cell count (WM1745) was 77.4%. For the same molecule, the cell count (WM3526) was 96.6%, the cell count (WM3619) was 108% and the cell count (WM451Lu) was 109%.
In the case of `O=C(Nc1cc(C(F)(F)F)cc(C(F)(F)F)c1)c1cc(Cl)ccc1O` + C[C@]1(c2nc3c(C(N)=O)cccc3[nH]2)CCCN1 [Veliparib] (first compound 0.016 µM, partner dose 1.4 µM), the cell count (WM115) is reported as 99.7%, the cell count (WM1716) is reported as 91.2% and the cell count (WM1745) is reported as 97.6%. The cell count (WM3526) was 106%, the cell count (WM3619) was 92.6% and the cell count (WM451Lu) was 107%.
Work on `O=C(O)c1ccc2c(c1)nc(Nc1cccc(Cl)c1)c1ccncc12` + c1cc(-c2cnn3cc(-c4ccc(OCCN5CCCCC5)cc4)cnc23)ccn1 [Dorsomorphin] (first compound 0.4 µM, partner dose 0.4 µM) yielded a cell count (WM115) of 96.6%, a cell count (WM1716) of 86.2% and a cell count (WM1745) of 66.7%. For the same molecule, the cell count (WM3526) was 82.9%, the cell count (WM3619) was 101% and the cell count (WM451Lu) was 89.7%.
Work on `O=C(O)c1ccc2c(c1)nc(Nc1cccc(Cl)c1)c1ccncc12` + C#Cc1cccc(Nc2ncnc3cc(OCCOC)c(OCCOC)cc23)c1 [erlotinib] (first compound 0.4 µM, partner dose 0.8 µM) yielded a cell count (WM115) of 107%, a cell count (WM1716) of 88.6% and a cell count (WM1745) of 95.1%. For the same molecule, the cell count (WM3526) was 77.4%, the cell count (WM3619) was 89.2% and the cell count (WM451Lu) was 79.8%.
Work on `O=C(Nc1cc(C(F)(F)F)cc(C(F)(F)F)c1)c1cc(Cl)ccc1O` + Cc1cn(-c2cc(NC(=O)c3ccc(C)c(Nc4nccc(-c5cccnc5)n4)c3)cc(C(F)(F)F)c2)cn1 [nilotinib] (first compound 0.016 µM, partner dose 0.2 µM) yielded a cell count (WM115) of 101%, a cell count (WM1716) of 98.2% and a cell count (WM1745) of 91.4%. For the same molecule, the cell count (WM3526) was 108%, the cell count (WM3619) was 109% and the cell count (WM451Lu) was 93.5%.
Molecule `O=C(O)[C@@H]1[O][Sb](=[O])([O][Sb]2(=[O])[O][C@H]([C@H](O)CO)[C@H](O)[C@H](C(=O)O)[O]2)[O][C@H]([C@H](O)CO)[C@@H]1O` (stereo not given in full) [stibogluconate] + Cc1cc(N2CCOCC2)cc2[nH]c(-c3c(NC[C@@H](O)c4cccc(Cl)c4)cc[nH]c3=O)nc12 [BMS536924] (first compound 2 µM, partner dose 0.2 µM) has a cell count (WM115) of 112%, a cell count (WM1716) of 110% and a cell count (WM1745) of 89.6%. The cell count (WM3526) was 89.1%, the cell count (WM3619) was 94.8% and the cell count (WM451Lu) was 94.3%.
`Cn1nnc2c(C(N)=O)ncn2c1=O` [temozolomide] + CN(NC(=O)CC(=O)NN(C)C(=S)c1ccccc1)C(=S)c1ccccc1 [STA4783] (first compound 2 µM, partner dose 0.006 µM) was tested, and the cell count (WM115) was 87.8%, the cell count (WM1716) was 51% and the cell count (WM1745) was 32%. The cell count (WM3526) was 110%, the cell count (WM3619) was 9.61% and the cell count (WM451Lu) was 127%.
